This is one part of the list. Most values come without repeats; read them as rough.
What was measured:
Test in all cases: cell count relative to DMSO control; melanoma cells; higher = more viable cells
Details in all cases: library dose: standard library concentration; 72 h
501Mel = system: 501Mel
A101D = system: A101D
A2058 = system: A2058
A375 = system: A375
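Also: cells treated in 1,536-well plates, then fixed and DAPI-stained, with nuclei counted from automated high-throughput microscope images.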

## O=C(Nc1ccccc1)c1cc([N+](=O)[O-])ccc1Cl + Cc1cc(SCc2sc(-c3ccc(C(F)(F)F)c(F)c3)nc2C)ccc1OCC(=O)O [GW0742] (first compound 10 µM, partner dose 10 µM)
501Mel
  cell count: 65.6%
A101D
  cell count: 89.8%
A2058
  cell count: 88.7%
A375
  cell count: 152%

## CCCCCCCCc1ccc(CCC(N)(CO)CO)cc1 [fingolimod] + C/C(O)=C(\C#N)C(=O)Nc1cc(Br)ccc1Br [LFM-A13] (first compound 10 µM, partner dose 10 µM)
501Mel
  cell count: 0.663%
A101D
  cell count: 3.79%
A2058
  cell count: 3.01%
A375
  cell count: 68.3%

## C/C(O)=C(\C#N)C(=O)Nc1cc(Br)ccc1Br + Cc1cc([N+](=O)[O-])ccc1NS(=O)(=O)c1cc(Cl)ccc1Cl [FH535] (first compound 10 µM, partner dose 5 µM)
501Mel
  cell count: 60.7%
A101D
  cell count: 63%
A2058
  cell count: 80.2%
A375
  cell count: 85.6%

## Cn1sc(=O)n(Cc2ccccc2)c1=O + Cc1cc(SCc2sc(-c3ccc(C(F)(F)F)c(F)c3)nc2C)ccc1OCC(=O)O [GW0742] (first compound 2 µM, partner dose 10 µM)
501Mel
  cell count: 71.3%
A101D
  cell count: 103%
A2058
  cell count: 94.6%
A375
  cell count: 130%

## Cc1cc(SCc2sc(-c3ccc(C(F)(F)F)c(F)c3)nc2C)ccc1OCC(=O)O + O=C1NC(=O)/C(=C/c2ccc(-c3ccc(F)cc3O)o2)S1 [AS252424] (first compound 10 µM, partner dose 5 µM)
501Mel
  cell count: 87.5%
A101D
  cell count: 114%
A2058
  cell count: 101%
A375
  cell count: 96.2%

## CCCCCCCCc1ccc(CCC(N)(CO)CO)cc1 [fingolimod] + Cc1cc(SCc2sc(-c3ccc(C(F)(F)F)c(F)c3)nc2C)ccc1OCC(=O)O [GW0742] (first compound 10 µM, partner dose 10 µM)
501Mel
  cell count: 0.8%
A101D
  cell count: 4.21%
A2058
  cell count: 3.47%
A375
  cell count: 61.1%

## COC(=O)c1sccc1S(=O)(=O)Nc1ccc(Nc2ccccc2)cc1OC + Cc1cc(SCc2sc(-c3ccc(C(F)(F)F)c(F)c3)nc2C)ccc1OCC(=O)O [GW0742] (first compound 5 µM, partner dose 10 µM)
501Mel
  cell count: 80%
A101D
  cell count: 90.4%
A2058
  cell count: 90.1%
A375
  cell count: 90.8%

## COc1cc2c(Oc3ccc4[nH]c(C)cc4c3F)ncnc2cc1OCCCN1CCCC1 [cediranib] + C/C(O)=C(\C#N)C(=O)Nc1cc(Br)ccc1Br [LFM-A13] (first compound 2 µM, partner dose 10 µM)
501Mel
  cell count: 88.4%
A101D
  cell count: 109%
A2058
  cell count: 101%
A375
  cell count: 98.3%

## CN(NC(=O)CC(=O)NN(C)C(=S)c1ccccc1)C(=S)c1ccccc1 + O=C(Oc1ccc([N+](=O)[O-])cc1)N1CCC(C(O)(c2ccc3c(c2)OCO3)c2ccc3c(c2)OCO3)CC1 [JZL184] (first compound 0.03 µM, partner dose 5 µM)
501Mel
  cell count: 0.74%
A101D
  cell count: 59.6%
A2058
  cell count: 14.7%
A375
  cell count: 106%

## CC(C)(C)c1cnc(CSc2cnc(NC(=O)C3CCNCC3)s2)o1 + C/C(O)=C(\C#N)C(=O)Nc1cc(Br)ccc1Br [LFM-A13] (first compound 0.05 µM, partner dose 10 µM)
501Mel
  cell count: 122%
A101D
  cell count: 86.9%
A2058
  cell count: 81.6%
A375
  cell count: 94.3%

## NC(=O)c1ccc(N(C(N)=O)c2c(F)cccc2F)nc1-c1ccc(F)cc1F + Cc1cc(SCc2sc(-c3ccc(C(F)(F)F)c(F)c3)nc2C)ccc1OCC(=O)O [GW0742] (first compound 2 µM, partner dose 10 µM)
501Mel
  cell count: 93.7%
A101D
  cell count: 99%
A2058
  cell count: 93.2%
A375
  cell count: 109%

## CCCS(=O)(=O)Nc1ccc(F)c(C(=O)c2c[nH]c3ncc(Cl)cc23)c1F + Cc1cc(SCc2sc(-c3ccc(C(F)(F)F)c(F)c3)nc2C)ccc1OCC(=O)O [GW0742] (first compound 0.4 µM, partner dose 10 µM)
501Mel
  cell count: 80.2%
A101D
  cell count: 82%
A2058
  cell count: 103%
A375
  cell count: 104%

## CC1(C)CCC(c2ccc(Cl)cc2)=C(CN2CCN(c3ccc(C(=O)NS(=O)(=O)c4ccc(N[C@H](CCN5CCOCC5)CSc5ccccc5)c(S(=O)(=O)C(F)(F)F)c4)cc3)CC2)C1 + Cc1cc(SCc2sc(-c3ccc(C(F)(F)F)c(F)c3)nc2C)ccc1OCC(=O)O [GW0742] (first compound 2 µM, partner dose 10 µM)
501Mel
  cell count: 80.9%
A101D
  cell count: 40.1%
A2058
  cell count: 79.2%
A375
  cell count: 50.6%

## C[C@]1(c2nc3c(C(N)=O)cccc3[nH]2)CCCN1 [Veliparib] + C/C(O)=C(\C#N)C(=O)Nc1cc(Br)ccc1Br [LFM-A13] (first compound 7 µM, partner dose 10 µM)
501Mel
  cell count: 91.3%
A101D
  cell count: 88.3%
A2058
  cell count: 78.4%
A375
  cell count: 87%

## C[C@@H](N)c1ccc(C(=O)Nc2ccnc3[nH]ccc23)cc1 + Cc1cc(SCc2sc(-c3ccc(C(F)(F)F)c(F)c3)nc2C)ccc1OCC(=O)O [GW0742] (first compound 2 µM, partner dose 10 µM)
501Mel
  cell count: 104%
A101D
  cell count: 77.1%
A2058
  cell count: 75.2%
A375
  cell count: 106%

## Cn1nnc2c(C(N)=O)ncn2c1=O [temozolomide] + O=C(Oc1ccc([N+](=O)[O-])cc1)N1CCC(C(O)(c2ccc3c(c2)OCO3)c2ccc3c(c2)OCO3)CC1 [JZL184] (first compound 10 µM, partner dose 5 µM)
501Mel
  cell count: 91.9%
A101D
  cell count: 81.4%
A2058
  cell count: 45.2%
A375
  cell count: 106%

## O=S(=O)(c1ccccc1)N(CC(F)(F)F)c1ccc(C(O)(C(F)(F)F)C(F)(F)F)cc1 + Cc1cc(SCc2sc(-c3ccc(C(F)(F)F)c(F)c3)nc2C)ccc1OCC(=O)O [GW0742] (first compound 7 µM, partner dose 10 µM)
501Mel
  cell count: 78.6%
A101D
  cell count: 93.6%
A2058
  cell count: 100%
A375
  cell count: 97%

## CS(=O)(=O)CCNCc1ccc(-c2ccc3ncnc(Nc4ccc(OCc5cccc(F)c5)c(Cl)c4)c3c2)o1 [lapatinib] + C/C(O)=C(\C#N)C(=O)Nc1cc(Br)ccc1Br [LFM-A13] (first compound 4 µM, partner dose 10 µM)
501Mel
  cell count: 66%
A101D
  cell count: 69.4%
A2058
  cell count: 83.6%
A375
  cell count: 143%

## Cc1cc(SCc2sc(-c3ccc(C(F)(F)F)c(F)c3)nc2C)ccc1OCC(=O)O + Oc1nc(-c2ccc(C(F)(F)F)cc2)nc2c1CSCC2 [XAV939] (first compound 10 µM, partner dose 10 µM)
501Mel
  cell count: 88%
A101D
  cell count: 72.4%
A2058
  cell count: 63.2%
A375
  cell count: 88.1%

## NC1(c2ccc(-c3nc4ccn5c(=O)[nH]nc5c4cc3-c3ccccc3)cc2)CCC1 + Cc1cc(SCc2sc(-c3ccc(C(F)(F)F)c(F)c3)nc2C)ccc1OCC(=O)O [GW0742] (first compound 2 µM, partner dose 10 µM)
501Mel
  cell count: 94.9%
A101D
  cell count: 78.2%
A2058
  cell count: 88%
A375
  cell count: 117%

## Cc1cc(SCc2sc(-c3ccc(C(F)(F)F)c(F)c3)nc2C)ccc1OCC(=O)O + Cn1cc(/C=C2\C(=O)Nc3cccnc32)c2ccccc21 [GW441756] (first compound 10 µM, partner dose 2 µM)
501Mel
  cell count: 88.2%
A101D
  cell count: 87.4%
A2058
  cell count: 135%
A375
  cell count: 115%

## Cc1ccc(Nc2nccc(N(C)c3ccc4c(C)n(C)nc4c3)n2)cc1S(N)(=O)=O [Pazopanib] + O=C(Oc1ccc([N+](=O)[O-])cc1)N1CCC(C(O)(c2ccc3c(c2)OCO3)c2ccc3c(c2)OCO3)CC1 [JZL184] (first compound 2 µM, partner dose 5 µM)
501Mel
  cell count: 77.4%
A101D
  cell count: 76%
A2058
  cell count: 106%
A375
  cell count: 70.1%

## Cc1cc(SCc2sc(-c3ccc(C(F)(F)F)c(F)c3)nc2C)ccc1OCC(=O)O + O=c1cc(-c2cccc3c2Sc2ccccc2S3)oc(N2CCOCC2)c1 [KU55933] (first compound 10 µM, partner dose 5 µM)
501Mel
  cell count: 81%
A101D
  cell count: 84.6%
A2058
  cell count: 99.6%
A375
  cell count: 113%

## CS(=O)(=O)CCNCc1ccc(-c2ccc3ncnc(Nc4ccc(OCc5cccc(F)c5)c(Cl)c4)c3c2)o1 [lapatinib] + Cc1cc(SCc2sc(-c3ccc(C(F)(F)F)c(F)c3)nc2C)ccc1OCC(=O)O [GW0742] (first compound 4 µM, partner dose 10 µM)
501Mel
  cell count: 49%
A101D
  cell count: 70.1%
A2058
  cell count: 94.7%
A375
  cell count: 157%

## Cc1cc(Nc2cc(N3CCN(C)CC3)nc(/C=C/c3ccccc3)n2)n[nH]1 + Cc1cc(SCc2sc(-c3ccc(C(F)(F)F)c(F)c3)nc2C)ccc1OCC(=O)O [GW0742] (first compound 0.2 µM, partner dose 10 µM)
501Mel
  cell count: 81.6%
A101D
  cell count: 88.7%
A2058
  cell count: 85.8%
A375
  cell count: 90.3%

## CC[C@]1(O)C[C@H]2CN(CCc3c([nH]c4ccccc34)[C@@](C(=O)OC)(c3cc4c(cc3OC)N(C=O)[C@H]3[C@@](O)(C(=O)OC)[C@H](OC(C)=O)[C@]5(CC)C=CCN6CC[C@]43[C@@H]65)C2)C1 [vincristine] + O=C(Oc1ccc([N+](=O)[O-])cc1)N1CCC(C(O)(c2ccc3c(c2)OCO3)c2ccc3c(c2)OCO3)CC1 [JZL184] (first compound 0.0005 µM, partner dose 5 µM)
501Mel
  cell count: 54.1%
A101D
  cell count: 34.1%
A2058
  cell count: 7.84%
A375
  cell count: 65.6%

## CN(NC(=O)CC(=O)NN(C)C(=S)c1ccccc1)C(=S)c1ccccc1 + C/C(O)=C(\C#N)C(=O)Nc1cc(Br)ccc1Br [LFM-A13] (first compound 0.03 µM, partner dose 10 µM)
501Mel
  cell count: 8.68%
A101D
  cell count: 59%
A2058
  cell count: 10.2%
A375
  cell count: 105%

## Nc1nc(F)nc2c1ncn2[C@@H]1O[C@H](CO)[C@@H](O)[C@@H]1O [fludarabine] + C/C(O)=C(\C#N)C(=O)Nc1cc(Br)ccc1Br [LFM-A13] (first compound 1 µM, partner dose 10 µM)
501Mel
  cell count: 2.74%
A101D
  cell count: 85.1%
A2058
  cell count: 87.7%
A375
  cell count: 34.7%

## O=C(O)[C@@H]1[O][Sb](=[O])([O][Sb]2(=[O])[O][C@H]([C@H](O)CO)[C@H](O)[C@H](C(=O)O)[O]2)[O][C@H]([C@H](O)CO)[C@@H]1O (stereo partly specified) [stibogluconate] + C/C(O)=C(\C#N)C(=O)Nc1cc(Br)ccc1Br [LFM-A13] (first compound 10 µM, partner dose 10 µM)
501Mel
  cell count: 120%
A101D
  cell count: 109%
A2058
  cell count: 94.4%
A375
  cell count: 140%

## COc1ccc2c(c1)CCC1C2CCC2(C)C(NCCCCCCN3C(=O)C=CC3=O)CCC12 (stereo unspecified) + C/C(O)=C(\C#N)C(=O)Nc1cc(Br)ccc1Br [LFM-A13] (first compound 2 µM, partner dose 10 µM)
501Mel
  cell count: 108%
A101D
  cell count: 71.1%
A2058
  cell count: 63.6%
A375
  cell count: 77.9%

## CCCS(=O)(=O)Nc1ccc(F)c(C(=O)c2c[nH]c3ncc(Cl)cc23)c1F + C/C(O)=C(\C#N)C(=O)Nc1cc(Br)ccc1Br [LFM-A13] (first compound 0.4 µM, partner dose 10 µM)
501Mel
  cell count: 101%
A101D
  cell count: 77.5%
A2058
  cell count: 97.3%
A375
  cell count: 74.1%

## Cc1cc(SCc2sc(-c3ccc(C(F)(F)F)c(F)c3)nc2C)ccc1OCC(=O)O + O=C(O)C(=O)Nc1sc2c(c1C(=O)O)CCNC2 [TCS401] (first compound 10 µM, partner dose 8.33333 µM)
501Mel
  cell count: 85.2%
A101D
  cell count: 114%
A2058
  cell count: 102%
A375
  cell count: 191%

## CCN(CC)CCNC(=O)c1c(C)[nH]c(/C=C2\C(=O)Nc3ccc(F)cc32)c1C [sunitinib] + Cc1cc(SCc2sc(-c3ccc(C(F)(F)F)c(F)c3)nc2C)ccc1OCC(=O)O [GW0742] (first compound 2 µM, partner dose 10 µM)
501Mel
  cell count: 62.2%
A101D
  cell count: 62.9%
A2058
  cell count: 80.5%
A375
  cell count: 161%

## Cn1cncc1[C@@](N)(c1ccc(Cl)cc1)c1ccc2c(c1)c(-c1cccc(Cl)c1)cc(=O)n2C [tipifarnib] + O=C(Oc1ccc([N+](=O)[O-])cc1)N1CCC(C(O)(c2ccc3c(c2)OCO3)c2ccc3c(c2)OCO3)CC1 [JZL184] (first compound 0.05 µM, partner dose 5 µM)
501Mel
  cell count: 84.5%
A101D
  cell count: 81.1%
A2058
  cell count: 66.1%
A375
  cell count: 86.8%

From the supplement of paper PMC4604168 (melanoma cell lines)
